Laboratory results published in article PMC5892938.
Some of the results follow. At the low end of the ranking the order means little.

These sequences were tested against GST-SBP-SLBP (stem-loop binding protein) (UniProt Q14493) (assay: targeted RNA Bind-n-Seq). Conditions: RBNS binding buffer: 25 mM Tris pH 7.5, 150 mM KCl, 3 mM MgCl2, 0.1% Tween, 0.5 mg/mL BSA, 1 mM DTT; 27 nM protein, 750 pM RNA pool; temperature not stated; high values mean tight binding.
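Note: DESeq read counts versus GST-SBP nonspecific binding control pulldown.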

Sequence | binding signal (log2 fold change)
GGUCACGUCUCAAUCAACUCAACUUCAGGAGUUUGCUCCUGCAUAUUCAACAGCUCGCAGUCAAG | 0.171
GGUCACGUCUCAAUCAACUCUCUCGAGGGGGGGAAAACCCCUUUACCCUCUCCAUCAACAGCUCGCAGUCAAG | 0.264
GGUCACGUCUCAAUCAACUCAUUUCCAGGAGUUUCCUCCUGCUUAUUCAACAGCUCGCAGUCAAG | 0.0717
GGUCACGUCUCAAUCAACUCUUACGAGGGGGGGAAAACCCCUUUACCCUCAUACUCAACAGCUCGCAGUCAAG | -0.18
GGUCACGUCUCAAUCAACUCAUCGGAGGGGGGGAAAACCCCUUUACCCUCGUCAUCAACAGCUCGCAGUCAAG | 0.139
GGUCACGUCUCAAUCAACUCUUCCCCCAGGGAAAACCCUGGUAUAUUCAACAGCUCGCAGUCAAG | 0.0445
GGUCACGUCUCAAUCAACUCAUUUUCAGGAGUUUUCUCCUGCUUACUCAACAGCUCGCAGUCAAG | 0.0742
GGUCACGUCUCAAUCAACUCUUUUCCAGGAGUUUCCUCCUGUUUACUCAACAGCUCGCAGUCAAG | 0.0449
GGUCACGUCUCAAUCAACUCUAUCCCCAGGGAAAGCCCUGGUAUUUUCAACAGCUCGCAGUCAAG | 0.00742
GGUCACGUCUCAAUCAACUCAUCCUCCAGGGAAAGCCCUGGCUAUUUCAACAGCUCGCAGUCAAG | 0.141
GGUCACGUCUCAAUCAACUCAGUCUCCAGGGAAAACCCUGGCUAUUUCAACAGCUCGCAGUCAAG | 0.29
GGUCACGUCUCAAUCAACUCCCCGGAGGGGGGGAAAACCCCUUUACCCUCACUUUCAACAGCUCGCAGUCAAG | -0.181
GGUCACGUCUCAAUCAACUCUACUCCAGGAGUUUCCUCCUGUAAACUCAACAGCUCGCAGUCAAG | 0.0533
GGUCACGUCUCAAUCAACUCAAUCGAGGGGGGGAAAACCCCUUUGCCCUCACUUUCAACAGCUCGCAGUCAAG | 0.594
GGUCACGUCUCAAUCAACUCACAAGAGGGGGGGAAAACCCCUUUACCCUCACACUCAACAGCUCGCAGUCAAG | -0.599
GGUCACGUCUCAAUCAACUCAAUCUCCAGGGAAACCCCUGGCUUUCUCAACAGCUCGCAGUCAAG | 0.293
GGUCACGUCUCAAUCAACUCUUCUCCAGGAGUUUCCUCCUGUAUAUUCAACAGCUCGCAGUCAAG | -0.0305
GGUCACGUCUCAAUCAACUCAACUCCCAGGGAAAACCCUGGCAUACUCAACAGCUCGCAGUCAAG | -0.165
GGUCACGUCUCAAUCAACUCAGUCUCCAGGGAAACCCCUGGCUAUUUCAACAGCUCGCAGUCAAG | -0.146
GGUCACGUCUCAAUCAACUCUUUUCCAGGAGUUUACUCCUGUUUAUUCAACAGCUCGCAGUCAAG | 0.0243
